The values below come from PubChem BioAssay AID463173 (ICCB-Longwood Screening Facility, Harvard Medical School, 2010).

About 1,700 (3.3%) of roughly 52,000 compounds were called active. No stated cut-off is given here; in the data, active means survival mostly below about 52% (no sharp cut-off); inactive means mostly above about 56%. Some of the results follow.

The test system of this assay is Wild type. The assay is described as follows: growth inhibition of S. aureus wild type versus tarO mutant, primary screen, teichoic acid synthesis inhibitors, RN4220, OD600 (AID 463173). The conditions noted are these: S. aureus RN4220 wild type/DeltatarO growth, OD600, 18 h, stronger effect = lower value, screened at 18.75 µg/mL (by protocol).
As to `CCc1ccc2nc(N3CCC(C(=O)O)CC3)sc2c1`, the survival is inactive: 75%.
For `CCc1cccc(NC(=O)CN2C(=O)CCc3cc(S(=O)(=O)N4CCOCC4)ccc32)c1`, the survival is inactive: 71%.
As for `CCSc1nc2n(n1)C(c1ccc(CC)cc1)C(C(=O)Nc1ccccc1OC)=C(C)N2` (stereo unspecified), the survival is inactive: 68%.
`CCC(C(=O)N1CCN(c2cc(Cl)ccc2C)CC1)n1nc(C)n2c(cc3occc32)c1=O` (stereo unspecified): the survival is inactive: 86%.
Regarding `Cc1c(Cl)cccc1-n1c(CCC(=O)O)ccc1-c1cccs1`, the survival is inactive: 69%.
The result for `COc1ccc(Br)cc1CNC(=O)C(C)n1nc(C)n2c(cc3occc32)c1=O` (stereo unspecified) reads inactive: 61%; that for `CCN(CC)c1cc(C)nc2nc(-c3ccc(C)cc3)nn12`, inactive: 83%.
The result for `O=C(CN(c1cccc(Br)c1)S(=O)(=O)c1ccccc1)N1CCOCC1` reads inactive: 104%.
The result for `Cc1ccc2oc(C(=O)Nc3nnc(CC(C)C)s3)cc(=O)c2c1` reads inactive: 85%.
For `CC(C)(CO)C(O)C(=O)NN` (stereo unspecified), the survival was inactive: 103%.
Regarding `COc1ccc(N2CCN(C(=O)c3cc4c(=O)n(Cc5ccccc5)ccc4nc3C)CC2)cc1`, the survival was inactive: 74%.
The result for `Cc1ccc(CN2CCSc3ccc(C(=O)Nc4ccc(F)cc4F)cc32)cc1` reads inactive: 97%; that for `COC(=O)c1nnn(CC(=O)NC(=O)Nc2ccccc2F)c1C(=O)OC`, inactive: 77%.
With `Cc1noc(NS(=O)(=O)c2ccc(NC(=O)c3ccc(Br)cc3)cc2)c1C` the figure was inactive: 72%; with `Cc1ccc(OCc2nnc(SCC(=O)CC(=O)Nc3ccccc3)o2)cc1`, inactive: 84%.
The result for `CCCN(CCC)C1=CC(=O)C(C(C)(C)C)=CC1=O` reads inactive: 101%; that for `C=CCn1c(SCC(=O)O)nnc1-c1ccco1`, inactive: 101%.
Regarding `Cc1c(Cl)cccc1NC(=O)c1ccc2nc(C(C)C)oc2c1`, the survival is inactive: 77%.
The result for `CCc1ccccc1Nc1nn2c(=O)c3ccc(C(=O)Nc4ccc(OC)cc4)cc3nc2s1` reads inactive: 66%; that for `Cc1ccc(-c2cc(C(=O)N3CCCC3)no2)cc1`, inactive: 109%; that for `CCN1CCC(N(Cc2ccc(F)cc2)C(=O)Nc2cccc(C(F)(F)F)c2)CC1`, inactive: 124%.
With `CC(C)n1c(SCC(=O)N(Cc2ccccc2)C(C)(C)C)nc2c1c(=O)n(C)c(=O)n2C` the figure was inactive: 105%; with `Cc1c(-c2ccccc2)nc2ccccc2c1C(=O)O`, inactive: 110%; with `O=C(CSc1nc2ccccc2nc1Cc1ccccc1)N1CCN(c2ccccc2)CC1`, inactive: 68%.
The result for `CC(=O)Nc1cc(-c2ccccc2)nn1Cc1cccc(Cl)c1` reads inactive: 59%.
As to `Cc1cccc(NC(=O)NCCOCCn2c(=O)oc3ccccc32)c1C`, the survival is inactive: 112%.
With `O=C(O)CN=C1NC2(CCCC2)Cc2ccccc21` the figure was inactive: 109%; with `CC1Cc2cc(S(=O)(=O)CCC(=O)Nc3ccc(Cl)cc3F)ccc2N1C(=O)C1CC1` (stereo unspecified), inactive: 66%.
In the case of `COc1ccc(CCC(=O)NCc2nc3cccnc3n2Cc2ccccc2)cc1`, the survival was inactive: 63%.
In the case of `CCc1ccccc1NC(=O)C1CCN(S(=O)(=O)c2cc(OC)ccc2OC)CC1`, the survival is inactive: 103%.
In the case of `COc1ccc(-c2nnn(CCC(=O)O)n2)cc1`, the survival was inactive: 102%.
`CC(C)Oc1ccc(C(=O)Nc2ccc(-c3nc4ccccc4s3)cc2)cc1`: the survival was inactive: 92%.
The result for `COc1ccc(CCNC(=O)CCc2c(C)c3cc4c(C)coc4cc3oc2=O)cc1` reads inactive: 90%.
As to `COc1ccccc1C(=O)Nc1cc(-c2ccc(C)cc2)no1`, the survival is inactive: 73%.
In the case of `Cc1ccccc1Cn1c(CN2CCN(c3cc(Cl)ccc3C)CC2)nc2c1c(=O)[nH]c(=O)n2C`, the survival was inactive: 122%.
With `CCOc1ccc(CCNC(=O)CCn2c(=O)c3cccn3c3cccnc32)cc1` the figure was inactive: 90%; with `Cc1ccc(Cl)cc1NC(=O)CCCN1C(=O)CCn2nc(-c3cn(C)c4ccccc34)cc21`, inactive: 120%.
With `OC(COc1ccc2ccccc2c1)Cn1ccnc1` (stereo unspecified) the figure was inactive: 113%.
With `COc1ccc(N2CCN(C(=O)c3cc4cc5ccc(Cl)cc5nc4o3)CC2)cc1` the figure was inactive: 87%; with `COc1ccc(C)cc1S(=O)(=O)NCC(c1ccc(N(C)C)cc1)N1CCc2ccccc21` (stereo unspecified), inactive: 65%.
For `CN(c1ccccc1)c1ncnc2c1cnn2C`, the survival is inactive: 105%.
With `CCC(=O)Nc1ccccc1-c1nc2ccccc2n(C(C)C(=O)Nc2ccc(OC)cc2)c1=O` (stereo unspecified) the figure was inactive: 82%; with `O=C(O)c1ccc(N2C(=O)c3[nH]nc(-c4ccccc4)c3C2c2cccc(F)c2)cc1` (stereo unspecified), inactive: 71%; with `COc1cccc(-c2nc3c(c(C)nn3-c3ccccc3)c3cc(OC)c(OC)cc23)c1`, inactive: 82%.
The result for `CCc1ccc(C2C(C(=O)Nc3ccc(Cl)cc3)=C(C)Nc3ncnn32)cc1` (stereo unspecified) reads inactive: 59%; that for `Cc1ccc2c(c1)C(=O)OC(C(=O)Nc1ncc(Cc3ccccc3)s1)C2` (stereo unspecified), inactive: 71%; that for `CCNc1nc(Oc2ccc(=O)n(-c3ccccc3)n2)nc(N(C)C)n1`, inactive: 74%.
With `Cc1cc(NC(=O)N2CCC(CN3CCOCC3)CC2)ccc1Br` the figure was inactive: 117%; with `COc1cccc(C2C(=O)N(C3CCCCC3)CC(=O)N2Cc2ccc(Cl)cc2)c1` (stereo unspecified), inactive: 83%; with `Cc1ccc(NC(=O)Cn2c(=O)oc3cc(S(=O)(=O)N4CCC(C)CC4)ccc32)cc1Cl`, inactive: 150%.
As for `Cc1cccc(C(=O)N(Cc2ccco2)Cc2ccccc2F)c1`, the survival is inactive: 113%.
In the case of `CCOc1cc(C(=O)Nc2ccc(-c3nc4cc(Cl)ccc4o3)cc2)cc(OCC)c1OCC`, the survival was inactive: 90%.
Regarding `CC(=O)c1cccc(-n2c(=O)c3c4c(sc3n(CC(=O)c3ccc(Cl)cc3)c2=O)CN(C(C)=O)CC4)c1`, the survival was inactive: 89%.
For `CC1CCCCN1C(=O)CSc1n[nH]c(-c2ccccc2)n1` (stereo unspecified), the survival was inactive: 87%.
With `Cn1cc(C(=O)NCCc2ccc(Cl)cc2)c(=O)c2cc(S(=O)(=O)N3CCOCC3)ccc21` the figure was inactive: 81%; with `COc1ccc(CNC(=O)CCCc2nnc3n(CCC(C)C)c(=O)c4sccc4n23)cc1`, inactive: 111%; with `O=c1[nH]c(C2CCCN(S(=O)(=O)c3ccccc3Cl)C2)nc2c1nnn2Cc1ccc(OC(F)(F)F)cc1` (stereo unspecified), inactive: 65%.
The result for `CCc1nn(CCCC(=O)N2CCN(c3ccc(OC)cc3)CC2)c(=O)c2cc3occc3n12` reads inactive: 105%; that for `COc1ccc(CCNC(=O)c2ccc3c(c2)c(C)c(C)n3Cc2ccccc2)c(OC)c1OC`, inactive: 68%; that for `Cc1ccc(CCNC(=O)C2CC(=O)N(CCc3ccccc3)C2)cc1` (stereo unspecified), inactive: 77%.
In the case of `COc1ccc(S(=O)(=O)N(CC(=O)O)c2cc(Cl)ccc2OC)cc1OC`, the survival is inactive: 106%.
The result for `CCOc1ccc(Nc2ncnc3c2nc2n3CCCCC2)cc1` reads inactive: 131%; that for `Cc1cccc(N2CCN(C(=O)Cn3ncc4c3-c3ccccc3OC4)CC2)c1C`, inactive: 77%.
As to `COc1ccc(NC(=O)C2CCC(CNS(=O)(=O)c3ccc4c(c3)C(C)(C)C(=O)N4C)CC2)cc1` (stereo unspecified), the survival was inactive: 88%.
The result for `O=C(NCc1ccc2c(c1)OCO2)C1CCN(c2ccc(S(=O)(=O)N3CCCC3)cc2)CC1` reads inactive: 101%.
With `O=C(Nc1nnc(S(=O)(=O)N2CCCCCC2)s1)c1cccc(Br)c1`, the survival is inactive: 14%.
With `Clc1cccc(N2CCN(c3c4c(nc5nncn35)CCC4)CC2)c1` the figure was inactive: 108%; with `Cn1cnc(S(=O)(=O)N2CCC(C(=O)Nc3ccc(C#N)cc3)CC2)c1`, inactive: 94%.
With `O=C(COc1ccccc1)Nc1ccc2nc(SCC(=O)N3CCc4ccccc43)sc2c1`, the survival is inactive: 89%.
With `CCOc1ccc(C(=O)Nc2onc3c2CCCC3)cc1` the figure was inactive: 83%; with `N#Cc1ccccc1Cn1c(SCC(=O)Nc2ccc(F)cc2)nc2ccccc21`, inactive: 83%; with `CCc1nnc(SCc2ccc(F)cc2Cl)c2cc3sc(C)cc3n12`, inactive: 96%.
With `c1ccc(-c2cnnn2-c2ccccc2)cc1`, the survival was inactive: 100%.
With `CC(=O)c1ccc(NC(=O)c2nc(-c3ccccc3)n(-c3ccccc3Cl)n2)cc1`, the survival was inactive: 58%.
With `COc1ccc(CNCCCSc2nnnn2C)c(OC)c1` the figure was inactive: 85%; with `CCOC(=O)c1ccccc1NC(=O)c1ccc2c(Cl)c3c(nc2c1)CCC3`, inactive: 84%.
For `CC(C)(C)n1nnnc1C(c1cccnc1)N(Cc1ccccc1)Cc1ccco1` (stereo unspecified), the survival was inactive: 106%.
`COc1cccc(CNC(=O)CCn2c(=O)c3cccn3c3cccnc32)c1OC`: the survival is inactive: 86%.
`Clc1ccc(-n2ccc3ccccc32)cc1`: the survival is inactive: 104%.
The result for `CCOc1ccc(CNC(=O)C2CCN(S(=O)(=O)c3ccc4c(ccn4C)c3)CC2)cc1` reads inactive: 75%.
With `Cc1nn(CC(=O)NCC(C)c2ccccc2)c(=O)c2cc3ccccc3n12` (stereo unspecified) the figure was inactive: 85%; with `COc1cc2oc(=O)c(CC(=O)NCc3ccc(OC)c(OC)c3)c(C)c2cc1Cl`, inactive: 85%; with `Cc1ccc(-c2noc(-c3ccc(N4CCCCC4C)c([N+](=O)[O-])c3)n2)cc1` (stereo unspecified), inactive: 83%.
The result for `CCCCn1c(=O)c2oc3ccccc3c2n(Cc2cccc(C)c2)c1=O` reads inactive: 88%.
For the molecule `Cc1c(Cl)cccc1NC(=O)c1cc2sccc2n1Cc1ccc(F)cc1`, the survival was inactive: 103%.
The result for `COc1ccc(N(C)C(=O)c2nc(-c3cccc(F)c3)n3c2CCCCC3)c(OC)c1` reads inactive: 95%; that for `Cc1c(C(=O)Nc2ccc(-c3nc4cc(Cl)ccc4o3)cc2)oc2ccccc12`, inactive: 129%.
With `Cc1ccc(-c2cc(-c3coc4ccccc4c3=O)c3c(n2)-c2ccccc2OC3)cc1` the figure was inactive: 81%; with `Cc1c(-c2cccc(NC(=O)Nc3ccccc3)c2)nc2ncccn12`, inactive: 64%.
With `Cc1ccc(S(=O)(=O)N2CCc3cc(C(=O)NCCc4ccccc4)ccc32)cc1` the figure was inactive: 118%.
Turning to `CCOc1ccc(NC(=O)CN2CCN(C3CCCCC3)C(=O)C2=O)cc1`, the survival was inactive: 83%.
